# In all, about 310,000 compounds went through this assay and about 14,000 (4.5%) showed an effect of 50% or more. The effect is printed as a negative number. The list shows a part of the results.
# Molecular target: human ether-à-go-go-related gene (hERG) potassium channel (human, UniProt Q12809)
# Experiment: primary screen, population patch clamp on CHO cells stably expressing hERG
# 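Further: peak tail current of the secondary pulse compared with the same well before compound.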
# human ether-à-go-go-related gene (hERG) potassium channel, sequence (Q12809 whole entry, looked up): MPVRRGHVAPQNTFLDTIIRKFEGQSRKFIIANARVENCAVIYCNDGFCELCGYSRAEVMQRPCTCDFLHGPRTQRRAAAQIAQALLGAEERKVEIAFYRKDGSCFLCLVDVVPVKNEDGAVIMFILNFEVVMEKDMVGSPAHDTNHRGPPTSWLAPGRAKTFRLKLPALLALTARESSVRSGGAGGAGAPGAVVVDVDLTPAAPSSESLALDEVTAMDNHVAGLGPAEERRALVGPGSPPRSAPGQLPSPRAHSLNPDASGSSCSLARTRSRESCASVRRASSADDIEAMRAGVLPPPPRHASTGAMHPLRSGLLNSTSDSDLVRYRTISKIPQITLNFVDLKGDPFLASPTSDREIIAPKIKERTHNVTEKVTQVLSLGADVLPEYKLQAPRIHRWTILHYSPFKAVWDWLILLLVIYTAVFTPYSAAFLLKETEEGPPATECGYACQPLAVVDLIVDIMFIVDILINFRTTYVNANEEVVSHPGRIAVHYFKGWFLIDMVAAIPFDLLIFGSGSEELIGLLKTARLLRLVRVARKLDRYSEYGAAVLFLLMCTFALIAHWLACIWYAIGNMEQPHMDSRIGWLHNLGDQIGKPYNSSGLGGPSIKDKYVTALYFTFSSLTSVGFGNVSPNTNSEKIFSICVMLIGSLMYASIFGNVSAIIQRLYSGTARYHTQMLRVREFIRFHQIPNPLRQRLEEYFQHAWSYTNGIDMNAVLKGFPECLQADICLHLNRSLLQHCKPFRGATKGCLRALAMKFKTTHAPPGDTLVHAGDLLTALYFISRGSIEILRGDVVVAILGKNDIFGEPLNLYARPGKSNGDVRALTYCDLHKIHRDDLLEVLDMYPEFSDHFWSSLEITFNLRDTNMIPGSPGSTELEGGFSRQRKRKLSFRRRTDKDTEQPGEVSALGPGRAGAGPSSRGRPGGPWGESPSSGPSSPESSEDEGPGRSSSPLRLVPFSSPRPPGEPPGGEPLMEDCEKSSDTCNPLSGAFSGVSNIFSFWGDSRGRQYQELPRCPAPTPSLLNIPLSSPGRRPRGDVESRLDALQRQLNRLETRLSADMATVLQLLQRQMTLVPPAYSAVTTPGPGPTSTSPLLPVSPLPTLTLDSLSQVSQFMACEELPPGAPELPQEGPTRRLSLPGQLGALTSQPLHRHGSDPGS
row,Compound,"hERG current change (%, negative = inhibition) at 10uM"
1,Cc1nn(-c2ccccc2)c2[nH]c(=O)c(CNCc3ccc4c(c3)OCO4)cc12,-28.7%
2,O=C(Cc1ccc([N+](=O)[O-])cc1)NCc1ccccc1Cl,20%
3,CCOc1ccccc1C(=O)Nc1cccc(-c2ccc3nncn3n2)c1,-30.3%
4,Cc1nc2ncnn2c(C)c1CCC(=O)N1CCOCC1,1.89%
5,CCCN1CCN(c2ncnc3scc(C4COc5ccccc5O4)c23)CC1 (stereo not drawn),-43.3%
6,Oc1oc(-c2ccccc2)nc1C=Nc1ccccc1,2.8%
7,CC(C)(C)c1ccc(OCCNC(=S)NC(=O)c2cccnc2)cc1,-16.3%
8,COc1ccc(S(=O)(=O)N(CC(=O)NCC2CCCO2)Cc2ccccc2)cc1C (stereo not drawn),-16.8%
9,COc1ccc(CC(=O)Nc2ccc(S(=O)(=O)Nc3cc(OC)nc(OC)n3)cc2)cc1,16.2%
10,COc1ccc(Br)cc1C(=O)N/N=C/c1ccc2c(c1)n(C)c(=O)n2C,15.9%
11,O=C(Nc1ccc(F)cc1)c1cccc(NC(=O)C2C3CC4OC(=O)C2C4C3)c1 (stereo not drawn),-34.3%
12,CCOC(=O)c1sc(NC(=O)COC(=O)CNC(=O)c2ccco2)c(C(=O)OCC)c1C,4.08%
13,CCN(CC)CCOC(=O)c1ccc(NC(=O)c2ccc(Cl)c(S(=O)(=O)N3CCCCCC3)c2)cc1.Cl,13.7%
14,COc1ccc2[nH]c(=O)c(CN(C(=O)NC3CCCCC3)C3CCCC3)cc2c1,-16.6%
15,Cn1c2c(c(=O)n(C)c1=O)C(c1ccccc1OC(F)F)C1=C(CCCC1=O)N2 (stereo not drawn),0.976%
16,Cc1csc(SC(C)C(=O)NCC2CCCO2)n1 (stereo not drawn),-11.7%
17,CC(C)C[C@H](NC(=O)NCCC1=CCCCC1)C(=O)O,-4.82%
18,O=C(Nc1cc(Cl)ccc1O)C1CC(c2c(F)cccc2Cl)=NO1 (stereo not drawn),23.4%
19,O=C(CCNC(=O)C1CCN(S(=O)(=O)c2ccc(F)cc2)CC1)NCc1ccc(F)cc1,-3.96%
20,COC(=O)CSc1nnc(SCc2ccc(OC)cc2)s1,12.1%
21,COc1cc(/C=C/C(=O)c2c(O)cc(C)oc2=O)cc(OC)c1O,24.5%
22,CCSc1nnc(NC(=O)NC(CC)(C(F)(F)F)C(F)(F)F)s1,14.8%

row,Compound,"hERG current change (%, negative = inhibition) at 10uM"
1,COc1ccc(/C=N/N=C2/NC(=O)C(CC(=O)O)S2)cc1OS(=O)(=O)c1ccccc1 (stereo not drawn),25.7%
2,O=C(COc1ccc2ccccc2c1)NCC(=O)N/N=C/c1ccco1,-2.74%
3,CCn1nc(C(=O)NNC(=O)c2ccccc2)c2ccccc2c1=O,-1.09%
4,COc1ccc(-c2cc(C(=O)O)sc2C)cc1,12.1%
5,COc1ccc(CCCC(=O)N/N=C\c2cccs2)cc1,27.2%
6,CC(=O)N1c2ccc(S(=O)(=O)N3CCC(C(=O)N4CCCC(C)C4)CC3)cc2CC1C (stereo not drawn),13.7%
7,Cc1ccc(S(=O)(=O)NC(=O)Nn2c(C)nnc2C)cc1,28.3%
8,COc1ccc(CCNC(=O)C2CC(=O)N(c3ccc(C(C)(C)C)cc3)C2)cc1OC (stereo not drawn),-6.6%
9,O=C(NCCc1ccco1)C(=O)NCCC1CCCCN1S(=O)(=O)c1ccccc1 (stereo not drawn),-34.6%
10,Cc1ccc(NC2=Nc3ccccc3CC2)cc1,-18.2%
11,Cc1c(Cl)c([N+](=O)[O-])nn1CC(=O)NCc1cccnc1,15.7%
12,O=C(N/N=C/c1cccc2ccccc12)c1ccc(CN2CCOCC2)cc1,-12.6%
13,Cc1ccc(C(=O)N[C@@H](C)CN2C3=NC[C@H](C(C)C)N3C[C@H]2Cc2ccc(O)cc2)cc1Br,-77.7%
14,O=C1CSC(c2ccccc2)N1c1ccc(F)cc1F (stereo not drawn),4.37%
15,Cc1c(NC(=O)C(c2ccccc2)c2ccccc2)cccc1C(=O)O,16%
16,FC(F)(F)c1cc(CCN2C(=S)NC[C@@H]2c2ccccc2)cc(C(F)(F)F)c1,6.67%
17,COCCNC(=O)C(c1ccc(O)cc1)N(C(=O)CCC(=O)Nc1nccs1)c1cccc(C)c1 (stereo not drawn),19.5%
18,C=CCn1cnc2c(nnn2Cc2ccc(F)cc2)c1=O,12.9%
19,Cc1cccc(C)c1OCC(=O)Nc1cccc(NC(=O)c2ccco2)c1,-23.1%
20,COc1ccc(NC(=O)C2CCCN2C(=O)NCc2ccccc2)cc1 (stereo not drawn),12.2%
21,CC(=O)c1c(N2CCN(C)CC2)[nH]c(-c2ccccc2)nc1=S,-13.2%
22,CC1(C)CC(=O)C=C(Nc2ccc(S(N)(=O)=O)cc2)C1,11.4%

row,Compound,"hERG current change (%, negative = inhibition) at 10uM"
1,Cc1[nH]n(-c2ccc(Cl)cc2)c(=O)c1/C=N/c1nnc(-c2ccccc2)s1,22.9%
2,CN(C)c1ccc(C=Nc2ccccc2C(N)=O)cc1,-0.385%
3,O=C(N=C1SC2CS(=O)(=O)CC2N1c1ccccc1)C1CCCCC1 (stereo not drawn),11.9%
4,COc1ccc(C(=O)N/N=C(\C)CC(=O)NC2CCCCC2)c(OC)c1,-10.3%
5,c1ccc(CNCCN2CCNCC2)nc1,4.01%
6,COc1cccc(C2Nc3ccccc3C(=O)N2c2ccc(F)cc2)c1O (stereo not drawn),7.47%
7,Cc1cccc(CSc2nn3c(=O)c(C)nnc3s2)c1,-6.93%
8,O=C(C1=C(O)C(=O)N(c2ccccc2)C1c1ccc([N+](=O)[O-])cc1)c1cccs1 (stereo not drawn),9.84%
9,Cc1ccc(C(=O)COC(=O)C(C)N2C(=O)C3C4C=CC(C4)C3C2=O)cc1C (stereo not drawn),6.78%
10,Cc1ccc(NS(=O)(=O)c2ccc(C(=O)N3CCN(c4ccccn4)CC3)cc2)cc1,-12.5%
11,CCCn1nnnc1NCc1ccc(SC)cc1,14.1%
12,COc1ccc(/C=C/C(=O)NCCCNC(=O)/C=C/c2ccc(OC)c(OC)c2)cc1OC,-26.1%
13,O=C(COc1coc(CN2CCc3ccccc3C2)cc1=O)Nc1cccc(Cl)c1,-0.853%
14,COc1ccc(C2/C=C\CN(S(=O)(=O)c3cccc4cccnc34)CC(=O)N2Cc2ccc(F)cc2)cc1 (stereo not drawn),1.44%
15,O=C(Nc1ccc(Br)cc1)c1ccc(CSC2=NCCS2)cc1,5.57%
16,O=C(Oc1ccc(Cl)cc1)N1CCCCC1,1.42%
17,CC1CCN(C(=O)C2CCN(S(=O)(=O)c3cccc4nonc34)CC2)CC1,-21.8%
18,CCOc1ccc2[nH]c(C(=O)N/N=C/c3cccc(OC)c3OC)cc2c1,-5.55%
19,O=C(c1cccs1)c1cn(CC(=O)N2CCc3ccccc3C2)c2ccccc12,7.09%
20,Cl.O=C(c1ccco1)N(CCCN1CCOCC1)c1nc(-c2ccc(Cl)cc2)cs1,-13.4%
21,CC1=NNC(=O)C1Cc1c(Cl)cccc1Cl (stereo not drawn),5.03%
22,CC(C)(C)C(=O)CSc1nc2c(c(-c3cccs3)c1C#N)CCC2.CCO,16.1%

row,Compound,"hERG current change (%, negative = inhibition) at 10uM"
1,COCCCNC(=S)N/N=C/c1ccc(N(C)C)cc1,15.6%
2,O=c1c2sc3nc(N4CCOCC4)c4c(c3c2ncn1-c1ccccc1)CCCC4,20.7%
3,COc1ccc(OCC(=O)Nc2ccc3c(c2)nc(CN2CCCC2)n3C)cc1,-26.9%
4,NC(=O)c1ccsc1NC(=O)c1ccc(N2CCCC2=O)cc1,5.29%
5,O=C(OCc1cccc(F)c1)c1cc2ccccc2cc1O,12.3%
6,CCc1ccc(C(CNC(=O)c2ccc3c(=O)n(-c4ccccc4F)c(=S)[nH]c3c2)N(C)C)cc1 (stereo not drawn),-4.7%
7,COc1ccc(Nc2nccc3c2ncn3C)cc1,10.6%
8,Cc1csc(SCC(=O)NCc2cccc(Cl)c2)n1,-7.05%
9,CC1(C)COC(c2ccc(F)c([N+](=O)[O-])c2)=N1,-10.3%
10,O=C1CCCN1C(=O)COc1cc(F)ccc1[N+](=O)[O-],5.56%
11,Cc1cc(OCC(=O)O)c2cccc(C)c2n1.Cl,11.2%
12,CC1CCCC(C)N1CCCNC(=O)c1ccc2c(c1)NC(=O)c1ccccc1S2 (stereo not drawn),4.54%
13,Cc1ccc(S(=O)(=O)NC(=O)Nc2ncc3c(n2)CC(c2ccco2)CC3=O)cc1 (stereo not drawn),-2.39%
14,Cc1[nH]c2ccc(C(=O)OC(C)C(=O)NC3CCCCC3C)cc2c1C (stereo not drawn),-3.03%
15,O=C(NCCN1CCCC1)c1ccc2c(c1)N(Cc1ccc(F)cc1)C(=O)c1ccccc1S2=O (stereo not drawn),-7.19%
16,COCC(=O)NCc1nc2ccccc2n1Cc1ccccc1F,4.68%
17,COc1ccc(C)cc1NC(=O)CSc1nnc(-c2ccc(C)cc2)o1,10.6%
18,CC(=O)Nc1ccc(-c2ccc(NC(C)=O)cc2)cc1,8.78%
19,CCOC(=O)c1cnn(-c2nc(-c3cccc(F)c3)cs2)c1C(F)(F)F,6.51%
20,CC(=O)c1ccc(S(=O)(=O)N2CCN(C(=O)CSC(=S)N3CCCC3)CC2)cc1,-6.09%
21,O=C1Cc2ccccc2C(=O)N1CCc1ccccc1,-4.48%

# Source: article PMC4336329 (PLoS ONE, 2015)
